Reference: PubChem BioAssay AID1030 (National Center for Advancing Translational Sciences (NCATS), 2008)
Screen size: about 220,000 compounds; about 16,000 (7.3%) were called active. Inconclusive means that the source gave no clear call. Such entries were picked first, then a sample of the others. The call rests on the fitted dose curve; in most records, active means well fitted inhibition curve with a large enough effect (not every such curve was filed as active); inconclusive means small, poorly fitted or top-dose-only effect, or another doubt; inactive means no such curve, though single readings can be large or run the other way. Potencies of inconclusive entries are left out as doubtful fits. More than one record can exist for a structure, and the calls need not agree.

target: Aldehyde dehydrogenase 1A1 (Homo sapiens) (UniProt P00352); test: qHTS Assay for Inhibitors of Aldehyde Dehydrogenase 1 (ALDH1A1); conditions: Purified ALDH1A1, NADH fluorescence, propionaldehyde substrate; series mostly up to 75.3 µM; activity, negative = inhibition: at the top concentration;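 on activity, negative = inhibition: plate controls were no enzyme wells and a reference inhibitor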
Potency means the concentration at half of the fitted maximal effect; tags describe the fitted curve by direction and shape.

Sequence of UniProt P00352 (P00352 whole entry, looked up): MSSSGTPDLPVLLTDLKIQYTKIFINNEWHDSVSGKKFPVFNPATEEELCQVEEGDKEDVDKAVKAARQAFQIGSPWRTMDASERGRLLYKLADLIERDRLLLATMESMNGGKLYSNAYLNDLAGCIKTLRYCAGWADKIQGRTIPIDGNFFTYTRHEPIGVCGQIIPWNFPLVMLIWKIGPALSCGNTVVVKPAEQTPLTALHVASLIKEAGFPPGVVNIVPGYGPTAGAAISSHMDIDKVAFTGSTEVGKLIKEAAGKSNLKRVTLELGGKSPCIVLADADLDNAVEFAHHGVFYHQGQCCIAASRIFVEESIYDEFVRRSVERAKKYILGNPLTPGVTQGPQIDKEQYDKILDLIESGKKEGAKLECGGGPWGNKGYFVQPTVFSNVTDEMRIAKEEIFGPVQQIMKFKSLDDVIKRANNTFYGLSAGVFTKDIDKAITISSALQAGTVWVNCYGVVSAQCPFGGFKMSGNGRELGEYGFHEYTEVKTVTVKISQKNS

Compound	activity, negative = inhibition	Potency
CCCCCc1nnc(NC(=O)c2ccc(=O)n(C)n2)s1	inactive: -0.796%	
Cc1cccc(OCC(=O)Nc2ccc3c(C)cc(=O)oc3c2)c1		inconclusive [inhibitor, partial curve]
CCOCCCNC(=S)NCCCNc1nc2cc3c(cc2cc1C#N)OCO3		inconclusive [inhibitor, partial curve]
COC(=O)c1ccc(-c2ncc[nH]2)cc1		inconclusive [inhibitor, partial curve]
CNC(=O)N(C1=NCCCCC1)c1ccc(Br)cc1	inactive: -1.79%	
CCOc1ccccc1N(CC(=O)NCC1CCCO1)C(=O)CCC(=O)Nc1ccccn1 (centres undefined)		inconclusive [inhibitor, partial curve, poor fit]
Cc1[nH]nc(Sc2ccccn2)c1[N+](=O)[O-]	inactive: -5.51%	
CCN(CC)CCCNc1nc(-c2ccccc2)nc2ccccc12	inactive: -2.87%	
O=C(c1ccc(Br)o1)N1CCN(c2ccc3nnc(-c4ccc(F)cc4)n3n2)CC1	inactive: -12.3%	
Cc1[nH]c2ccccc2c1C(=O)CN1CCCCC1C (centres undefined)		active: 20 µM
CSc1cccc(NC(=O)CSc2ncccc2C(=O)Oc2cccc([N+](=O)[O-])c2)c1		inconclusive [inhibitor, single point]
NCCc1c(-c2ccccc2)n(-c2ccccc2)c2ccccc12		inconclusive [inhibitor, partial curve, poor fit]
CCOc1ccccc1NC(=O)Cn1c(=O)sc2ccccc21	inactive: 9.08%	
COc1cccc(C(=O)N2CCN(S(=O)(=O)Cc3ccccc3)CC2)c1		inconclusive [inhibitor, full curve, poor fit]
Cc1c(C(=O)NCC2COc3ccccc3O2)oc2ccc(S(=O)(=O)N3CCOCC3)cc12 (centres undefined)	inactive: -11.9%	
CCOC(=O)CC(NC(=O)c1cc2ccccc2oc1=O)c1cccc([N+](=O)[O-])c1 (centres undefined)		inconclusive [inhibitor, single point]
Cc1cc(NC(=O)c2cc(-c3ccc(C)s3)nc3ccccc23)no1		inconclusive [inhibitor, partial curve]
Cc1ccc(Cn2nc(C)c(NC(=O)c3noc4c3CCCCC4)c2C)cc1		inconclusive [inhibitor, partial curve, poor fit]
CC(C)(C)N(Cc1ccccc1)C(=O)c1ccc(Br)o1		inconclusive [inhibitor, single point]
CS(=O)(=O)Nc1ccccc1C(=O)NCc1ccccc1Cl		inconclusive [inhibitor, single point]
COc1ccc(Cc2nnc(N)s2)cc1		inconclusive [inhibitor, single point]
Cc1ccccc1NC(=O)C1CC(=O)N(c2ccc3c4c(cccc24)CC3)C1 (centres undefined)		inconclusive [inhibitor, single point]
CCOC(=O)c1c(NC(=O)C(=O)N/N=C(\C)c2ccc(OC)cc2)sc2c1CCCCC2		inconclusive [inhibitor, partial curve]

Compound	activity, negative = inhibition	Potency
Cc1cc(C(F)(F)F)n(-c2nc(C(=O)Nc3ccccc3Oc3ccccc3)cs2)n1	inactive: 10.3%	
Clc1ccccc1CSc1nnc(-c2ccccn2)n1Cc1ccco1		inconclusive [inhibitor, single point]
Nc1ccc(N2CCN(C(=O)c3cccs3)CC2)cc1		inconclusive [inhibitor, single point]
CCOc1ccc(CC(=NCCc2ccccc2)C2=C(O)CC(C)(C)CC2=O)cc1OCC		inconclusive [inhibitor, single point]
O=C1c2ccccc2C(=O)N1CN(C(=O)c1ccccc1)c1ccc(O)cc1		inconclusive [inhibitor, single point]
COc1ccc(S(=O)(=O)Nc2cc(C(=O)NCCCOC(C)C)ccc2N2CCOCC2)cc1		inconclusive [inhibitor, single point]
Cc1nc(N)sc1-c1csc(NCc2ccccc2)n1		active: 2.24 µM
O=C(c1cccs1)N1CCC(N2CCN(c3ccccc3)CC2)CC1		inconclusive [inhibitor, partial curve]
COc1ncc2nc(CCc3ccccc3)c(=O)n(CCC#N)c2n1		inconclusive [inhibitor, full curve]
CNc1ccccc1C(C)(C)c1cc(C)[nH]n1	inactive: 9.63%	
COc1ccc(/C(N)=N/OC(=O)C2CCC(=O)N2S(=O)(=O)c2ccc(C)cc2)cc1 (centres undefined)	inactive: -11.4%	
CC[n+]1c(/C=C2\Sc3ccccc3N2C)ccc2cccc(C)c21		inconclusive [inhibitor, single point]
Cc1onc(-c2ccccc2)c1-c1ccnn1S(=O)(=O)c1ccc(Cl)cc1		active: 7.94 µM
N#CC(c1ccccc1)c1ccc(C(=O)c2ccc(F)cc2)cc1 (centres undefined)		active: 20 µM
CCOC(=O)C(Cc1cc(C(C)=O)ccc1OC(C)C)C(=O)OCC		inconclusive [inhibitor, single point]
O=C(O)CCc1ccc(-c2cccs2)n1NC(=O)c1ccc(Cl)cc1Cl		inconclusive [inhibitor, partial curve, poor fit]
Cc1cc(NCc2ccc(F)cc2Cl)n2nnnc2n1		inconclusive [inhibitor, single point]
Nc1ncn([C@@H]2O[C@H](CO)[C@@H](O)[C@H]2O)c(=O)n1		active: 22.4 µM
CC(C)(C)c1cc(CCC(=O)NNC(=O)c2ccco2)cc(C(C)(C)C)c1O	inactive: 1.83%	
COc1cc(NS(=O)(=O)c2ccc(NC(=O)c3ccc(S(=O)(=O)N4CCCC4)cc3)cc2)ncn1		inconclusive [inhibitor, single point]
CC(=O)N1C(=S)NC(=O)/C1=C1/C(=O)N(CC(=O)Nc2cccc(C)c2)c2ccccc21		inconclusive [inhibitor, partial curve, poor fit]
COCCSc1nnc(NC(=O)c2cc(OC)c(OC)cc2[N+](=O)[O-])s1		inconclusive [inhibitor, partial curve, poor fit]
COc1ccc(CCNC(=O)/C(C#N)=C/c2cccc(OCc3ccccc3)c2)cc1OC	inactive: -12.1%	

Compound	activity, negative = inhibition	Potency
CCn1nnnc1SCC(=O)N(C1CCCCC1)C1CCCCC1		inconclusive [inhibitor, single point]
COC(=O)c1ccc(C(NC(=O)OCc2ccccc2)/C(I)=C/[C@@H](C)C(=O)NCc2ccc(C)o2)cc1 (some centres undefined)		active: 28.2 µM
CN1CCN(C(=O)c2ccc(-n3cccc3)cc2)CC1	inactive: 3.79%	
COC(=O)c1sccc1NC(=O)Cn1nnc(-c2ccccc2C)n1		inconclusive [inhibitor, single point]
Cn1c(=O)c2c(nc(N3CCN(c4ccc([N+](=O)[O-])cc4)CC3)n2C)n(C)c1=O		inconclusive [inhibitor, single point]
Cc1[nH]c2ccc(-c3n[nH]c(=S)n3Cc3ccccc3)cc2c1C		inconclusive [inhibitor, single point]
CC(=O)Nc1ccc(-c2nc3ccc(Cl)cc3[nH]2)cc1		inconclusive [inhibitor, partial curve]
CCOc1ccc(C(=O)NC(=S)NC2CCCC2)cc1[N+](=O)[O-]		active: 12.6 µM
Cc1cc(/C=C2\SC(=Nc3ccc(F)cc3)NC2=O)c(C)n1-c1ccc(S(N)(=O)=O)cc1		inconclusive [inhibitor, single point]
COCCn1nnnc1SCC(=O)c1ccccc1		inconclusive [inhibitor, single point]
CCc1ccc(C(=O)N2CCCC2)s1		inconclusive [inhibitor, single point]
Cc1oc2cc(OC(=O)c3ccco3)ccc2c(=O)c1-c1nc2ccccc2n1C		inconclusive [inhibitor, single point]
[O-]/C(=C(\C(=S)Nc1ccc(Cl)cc1)[n+]1ccccc1)c1ccc(OC(F)F)cc1		inconclusive [inhibitor, single point]
Cc1cc(C)c(S(=O)(=O)NC(CC(=O)O)c2cccc([N+](=O)[O-])c2)c(C)c1 (centres undefined)	inactive: -3.18%	
COc1ccc(S(=O)(=O)N(CC(=O)N/N=C/c2cccs2)c2ccc(C)cc2)cc1OC		inconclusive [inhibitor, single point]
Cc1cc2n(n1)C(c1ccco1)Nc1ccccc1-2 (centres undefined)		inconclusive [inhibitor, single point]
Cc1cc(C(=O)COC(=O)CC2Sc3ccccc3NC2=O)c(C)n1-c1ccccc1 (centres undefined)		inconclusive [inhibitor, single point]
O=C(Nc1ccc2[nH]c3c(c2c1)CCCC3)c1ccco1		inconclusive [inhibitor, single point]
COc1ccc(Cc2n[nH]c(=S)n2C)cc1Br	inactive: -8.45%	
COc1ccc(OCc2nnc(SCC(=O)c3c(N)n(C)c(=O)n(C)c3=O)n2-c2ccccc2F)cc1	inactive: 10.4%	
CCOc1ccc(NC(=O)CSc2nc3c(c(=O)n2-c2ccccc2OC)SCC3)cc1		active: 17.8 µM
O=C(/C=C/c1cn(-c2ccccc2)nc1-c1cccnc1)N1CCCCC1		inconclusive [inhibitor, single point]
CC1(c2ccncc2)Nc2ccccc2-c2nc3ccccc3n21 (centres undefined)		inconclusive [inhibitor, single point]
